Experimental data as given in PMC12136788.
The list shows a part of the results.

T1: UNK ZnF1-3 (human, UniProt Q9C0B0 31-174)
T1 sequence: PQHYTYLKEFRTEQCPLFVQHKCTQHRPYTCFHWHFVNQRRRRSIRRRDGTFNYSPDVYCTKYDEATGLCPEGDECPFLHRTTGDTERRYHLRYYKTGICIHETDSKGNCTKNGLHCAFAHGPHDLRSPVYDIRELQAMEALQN

B1: 21183937_21186944_3650_CDS_ENSG00000075151_ENST00000400422|human|control|control (ssRNA)
RNA: GGGAGUUCUACAGUCCGACGAUCGUUCUUGGCCCCUUGUACAGUGUUCCACCCACCUUCGUCCACUCUCUGGACACCUGGUCUUCUCUUCUCUUUGGUCAUGAGUUGCUGGACCUUCCUUUGCUCUUCUUGUUCUUCUAUUUUCAACAGAGGAUUGAGCAUCA
B2: chr10:44834900:44834901:+_ENSMUSG00000019849_ENSMUST00000099858|mus_mus|motif|central (ssRNA)
RNA: GGGAGUUCUACAGUCCGACGAUCGAAUGUGAACACUGUGCCCUCGUUGGUUACGUAGUCGUAUUCUCCUUCAAAGUUGUCGGUCAGUUUUACCCACUUCAGGAUUCCGGUGAUACCAUUGGGUUCUUGCUGGAGGUCACAGUACAACAGAGGAUUGAGCAUCA
B3: chr10:33190432:33190433:-_ENSG00000150093_ENST00000302278|hu_mus|hu_hu_hu_mus_True|18_88 (ssRNA)
RNA: GGGAGUUCUACAGUCCGACGAUCUACAUUUUCCAAACCUGCAUGUGAGUAAAACCAUGGCCACAGAGCCCCAAAACUACCCUACUGUGACUAAGAUGCUGCUGCUGUGAGCUUGGUUGUUGUGGGACCGCCUGAGUAGGAUUCCAACAGAGGAUUGAGCAUCA
B4: chr9:72849539:72849540:+_ENSMUSG00000034563_ENSMUST00000085350|mus_mus|FALSE|FALSE (ssRNA)
RNA: GGGAGUUCUACAGUCCGACGAUCGUUCCCCAUUUCUUCCAGCUUAGGUGGUUCAAGUGUAACAAUAUCCGAAUCGUCACUAGUAGUUCCGAAAUAGACAUUGUCUUCAGGGGAAGGUGCUUCCUCCACCUCAGCUGCUGACUUCAACAGAGGAUUGAGCAUCA
B5: chr8:86465610:86465611:+_ENSMUSG00000013033_ENSMUST00000141158|mus_mus|FALSE|FALSE (ssRNA)
RNA: GGGAGUUCUACAGUCCGACGAUCUUGAGAAUGAGAGGAACACAGAGACAGCAAAAAAGGACACAACGGAAAGUUGAAUAGCUAGGAAAACUCAAAAGAAAAAGACCUAGAGAAAAAGAAUGAGCAAGAUUCAGGAGCAAAUGACAACAGAGGAUUGAGCAUCA
B6: chr7:141356670:141356671:-_ENSG00000257093_ENST00000536163|hu_mus|FALSE|FALSE (ssRNA)
RNA: GGGAGUUCUACAGUCCGACGAUCUAUAUACAGAUAUGAUAUACACAGGUGUUAACUUGUACCACAGAAAGAAUCAAUUCAAGAAACAUUUACACUUAGCCUUGGGGUUAAGCCCACCUUCCUUCAGGUCUGUAAAUAAUACUCCAACAGAGGAUUGAGCAUCA
B7: chr12:39763582:39763583:-_ENSG00000139116_ENST00000544797|hu_mus|hu_hu_hu_mus_False|48_78 (ssRNA)
RNA: GGGAGUUCUACAGUCCGACGAUCCUCUAGGAACUGGGCAUUCACUUUGAAUUCAGGAGCAGGAAGCCCGUUUUUAAUCGCUGAGGUUUUUUUUUCUUCAAUACUCUUGAACAGGUGUCUAACAGCACGAGAGAUGAUGCCCUGCAACAGAGGAUUGAGCAUCA
B8: chr12:39756943:39756944:-_ENSG00000139116_ENST00000544797|hu_mus|hu_hu_hu_mus_False|58_78 (ssRNA)
RNA: GGGAGUUCUACAGUCCGACGAUCGGUUUGGCUGUUACCCCCAAGGGAAUCCUGCAAUAGUCUUGUUAGCUUAGAGUCUCUAUAGGGGACAUGGGUGGCUCUCUUGCUCUUGUCCCCCAAGGCGCUGAUUACAUUCCCAAGAGCCAACAGAGGAUUGAGCAUCA
B9: chr9:87430539:87430540:+_ENSG00000148053_ENST00000359847|hu_hu|FALSE|FALSE (ssRNA)
RNA: GGGAGUUCUACAGUCCGACGAUCAAAAUGAUUGAAUUCAGCAAGUACAUUUAUGAUCUAUCUACAUUGUUAAAACAGCACUAAAAAUAAAAAUUUUUAAAAUGAUUAUCCAUUAUUUACAGAAAAUGUGGAAAAGAUGGCUUUCAACAGAGGAUUGAGCAUCA
B10: chr2:120151847:120151848:-_ENSMUSG00000027291_ENSMUST00000028752|mus_hu|FALSE|FALSE (ssRNA)
RNA: GGGAGUUCUACAGUCCGACGAUCCUUGGAUUUGAUGGUGGGAGUGCCUUCCAUGAGCGGUGAGGUGCUUGACUGGUGAUCAGAGUCAUUCAGCUUCUUUACCAAUUGACUUCGUUUCUGUGUCAGGUAGUCAAUCAGAGCUAACAACAGAGGAUUGAGCAUCA
B11: chrX:153993181:153993182:+_ENSG00000130826_ENST00000369550|hu_hu|FALSE|FALSE (ssRNA)
RNA: GGGAGUUCUACAGUCCGACGAUCUACAUCUUCUUCUGGCAAUGACUUCCGCUCCUUUUUCUUCUUAUGUUUCUUUGGCAAAAUAAUUACUUCCGCAUCCGCCAUGUUACCCUGCACCGCGUGCGUGCCGCCCGGUCCACAGCCCAACAGAGGAUUGAGCAUCA
B12: 179090825_179090945_696_CDS_ENSG00000143322_ENST00000408940|human|control|control (ssRNA)
RNA: GGGAGUUCUACAGUCCGACGAUCAAUAUCUGUUCGCUCCAUUUCCCAUUUGUCGUGGAUGGGGGACACACCAUAGACUGUAGGCUUAUUACACUUGGGUGCUGGGUAGUGUAAUGUUGUCACCAGCCCAUCAGCCACUGUGGACAACAGAGGAUUGAGCAUCA
B13: chr2:152857951:152857952:+_ENSMUSG00000042631_ENSMUST00000037235|mus_hu|FALSE|FALSE (ssRNA)
RNA: GGGAGUUCUACAGUCCGACGAUCUUGAUUCUGCAGGUAGUAGGAGGCCGCCAGCCACAGGUCCGUGGCACCGUCGGAGAAGAACACGAGCAGCGCGCACAGCACCCAGCAGCAGUCCCGCAGCUCGUAGCGCGGCCCCGGGCCCAACAGAGGAUUGAGCAUCA
B14: chr1:152005216:152005217:-_ENSG00000163191_ENST00000271638|perfect_dup|FALSE|FALSE (ssRNA)
RNA: GGGAGUUCUACAGUCCGACGAUCAGAGGAUUAGAUUCGCUUCUGGGAAGUUUGGAUGAAAGAAUCAUGGCACGCUAUAGCUAAGCCACCAAUGAGGUUGAGAAACUCUUGGAAAUCUAGCUGCCCGUCACAGUUGAGGUCCAGCAACAGAGGAUUGAGCAUCA

These binders were tested against T1, UNK ZnF1-3 (assay: nsRBNS (natural sequence RNA bind-n-seq); RBNS binding buffer (assumed for nsRBNS): 25 mM Tris pH 7.5, 150 mM KCl, 3 mM MgCl2, 0.01% Triton X-100, 500 ug/ml BSA, 20 U/ml SUPERase-In, 4 C; UNK is unkempt and MSI1 is Musashi-1; names of the RNAs are library labels; protein concentration not given here; high values mean tight binding).

Row | Binder | binding signal [enrichment R]
1 | B1 | 0.315
2 | B2 | 0.567
3 | B3 | 1.03
4 | B4 | 0.538
5 | B5 | 2.62
6 | B6 | 1.31
7 | B7 | 1.3
8 | B8 | 0.715
9 | B9 | 1.44
10 | B10 | 0.499
11 | B11 | 0.781
12 | B12 | 0.664
13 | B13 | 0.874
14 | B14 | 1.57
